Measured values taken from PubChem BioAssay AID1645887 (National Center for Advancing Translational Sciences (NCATS), 2021).
Where “and” joins values, the source holds several entries; their conditions need not be identical. Identical values can stand only once. Among all 16,000 compounds or so, about 40 (0.2%) were called active. Another 1% or so got no clear call; they are omitted. The call rests on the fitted dose curve; in most records, active means well fitted activation curve with a large enough effect; inconclusive means small, poorly fitted or top-dose-only effect, or another doubt; inactive means no such curve, though single readings can be large or run the other way. The list shows a part of the results.

The compounds below were run against Rap guanine nucleotide exchange factor 4 (Homo sapiens) (UniProt Q8WZA2) (assay: Validation qHTS for agonist of cAMP-regulated guanine nucleotide exchange factor 4 (EPAC2)). Settings: EPAC2 Rap1B BODIPY-GDP exchange, fluorescence; activation: hits give high values.
Excerpt: Principle Investigator: Xiaodong Cheng Ph.D.
The University of Texas Medical Branch, […], TX
In multi-cellular eukaryotic organisms, the effects of cAMP are transduced by two ubiquitously-expressed intracellular cAMP receptors, the classic protein kinase A/cAMP-dependent protein kinase (PKA/cAPK) and the more recently discovered exchange protein directly activated by cAMP/cAMP-regulated guanine nucleotide exchange factor (EPAC/cAMP-GEF). Both PKA and EPAC are ubiquitously expressed in all tissues, and an increase in intracellular cAMP levels will lead to the activation of both PKA and EPAC. Therefore, careful dissections of the individual role and relative contribution of EPAC and PKA within the overall cAMP signaling in various model systems are critical for further elucidating the mechanism of cAMP signaling. To date no EPAC-specific antagonists and agonist, as well as isoform-specific agonists have been reported, and developing EPAC-specific pharmacological probes to determine the physiological functions that EPAC play in the overall cAMP-mediated signaling remains a major challenge within the research field. Furthermore, identified regulators of EPAC may lead to new mechanism-based therapeutic strategies specifically targeting the EPAC / cAMP-signaling components as EPAC has been implicated to play important roles in major human pathological conditions such as diabetes, heart disease, and cancer.
This qHTS will be used to screen the Molecular Libraries Small Molecule Repository (MLSMR) as a concentration-titration series using the NCGC unique quantitative screening (qHTS) platform to find activators for EPAC1. In addition, this assay will also be used as a counterscreen for the EPAC2 qHTS. This fluorescent based assay is developed and validated for EPAC1 that measures exchange using EPAC effector Rap1 complex with BODIPY-GDP, a GDP analog with a tethered fluorophores. Activators are identified by monitoring the change in fluorescence signal as the exchanged free BODIPY-GDP has a reduced fluorescence compared to Rap1-bound BODIPY-GDP. Increase in signal (activation) is the desired outcome for the EPAC1 agonist while no activity in this assay is desired for the EPAC2 agonist counterscreen.
[1] de Rooij, J., Zwartkruis, F. J., Verheijen, M. H., Cool, R. H., Nijman, S. M., Wittinghofer, A., and Bos, J.L. (1998) Nature 396, 474-477.
Briefly, three uL of reagents (100 nM EPAC2, 250 nM RAP1B-BODIPY-GDP, 50 uM GDP) were dispensed into a 1536-well Greiner black solid-bottom medium binding assay plate. Controls and test compounds (23 nL) were transferred to the plate via a Kalypsys pin tool equipped with a 1536-pin array. The plates were centrifuged at 1,000 rpm for 15 seconds followed by 5 minute incubation at room temperature. The assay plates were read at 5 minute intervals for 30 minutes in the ViewLux plate reader using 480nm excitation and 540nm emission filters. The results were normalized to the agonist positive control of 6.5 mM cAMP.
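Further: exchange makes BODIPY-GDP fluorescence drop when released from Rap1B; series mostly up to about 150 µM.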
On the % scale 0 is the no-effect control and ±100 the full control effect.

Sequence of UniProt Q8WZA2 (Q8WZA2 whole entry, looked up): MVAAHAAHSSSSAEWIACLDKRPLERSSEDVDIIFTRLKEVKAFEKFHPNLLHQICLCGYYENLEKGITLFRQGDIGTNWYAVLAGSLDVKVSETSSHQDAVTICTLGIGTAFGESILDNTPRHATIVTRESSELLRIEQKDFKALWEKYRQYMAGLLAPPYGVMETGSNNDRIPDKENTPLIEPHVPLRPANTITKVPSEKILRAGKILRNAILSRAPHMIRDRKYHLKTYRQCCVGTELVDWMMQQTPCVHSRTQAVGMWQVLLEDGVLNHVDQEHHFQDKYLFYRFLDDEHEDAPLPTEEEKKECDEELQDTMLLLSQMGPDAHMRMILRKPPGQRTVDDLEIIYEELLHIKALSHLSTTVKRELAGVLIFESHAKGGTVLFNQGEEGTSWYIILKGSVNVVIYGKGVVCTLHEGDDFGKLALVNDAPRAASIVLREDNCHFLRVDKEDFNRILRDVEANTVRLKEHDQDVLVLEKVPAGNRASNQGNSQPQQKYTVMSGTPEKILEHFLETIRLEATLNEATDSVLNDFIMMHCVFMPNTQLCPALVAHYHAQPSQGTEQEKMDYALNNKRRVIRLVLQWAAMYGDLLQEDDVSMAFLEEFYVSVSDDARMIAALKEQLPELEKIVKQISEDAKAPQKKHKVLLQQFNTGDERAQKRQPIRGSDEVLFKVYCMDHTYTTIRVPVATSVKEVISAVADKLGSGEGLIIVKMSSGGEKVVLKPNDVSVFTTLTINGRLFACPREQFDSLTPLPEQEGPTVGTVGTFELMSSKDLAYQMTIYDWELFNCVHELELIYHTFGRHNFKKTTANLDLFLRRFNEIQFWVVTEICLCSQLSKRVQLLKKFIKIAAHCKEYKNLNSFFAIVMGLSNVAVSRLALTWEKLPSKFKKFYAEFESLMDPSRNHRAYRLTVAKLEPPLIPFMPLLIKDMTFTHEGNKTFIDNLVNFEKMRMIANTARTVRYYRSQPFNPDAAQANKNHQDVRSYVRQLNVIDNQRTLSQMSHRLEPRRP

| Structure (SMILES) | activation |
| --- | --- |
| CCCC(C)C1(CC)C(=O)N=C(S)NC1=O (stereo unspecified) | inactive: -24.8% and inactive: -11.6% |
| Nc1ccccc1C(=O)O | inactive: 15.6% |
| C=CC[C@]1(O)CC[C@H]2[C@@H]3CCC4=CCCC[C@@H]4[C@H]3CC[C@@]21C | inactive: 2.36% |
| CN(C)C1C(=O)C(C(N)=O)=C(O)[C@@]2(O)C(=O)C3=C(O)c4c(O)cccc4[C@@](C)(O)C3[C@H](O)C12 (stereo partly specified) | inactive: -6.02% |
| CC1CC[C@]2(NC1)OC1CC3C4CC=C5CC(O)CC[C@@]5(C)C4CC[C@]3(C)C1C2C (stereo partly specified) | inactive: 7.18% |
| c1ccc(CCCCN2CCC(c3ccccc3)CC2)cc1 | inactive: 0.412% and inactive: -9.46% |
| Cc1cc(O)ccc1Cl | inactive: -10.1% and inactive: -9.14% |
| COC1=CC2C3Cc4ccc(OC)c(O)c4[C@]2(CCN3C)CC1=O (stereo partly specified) | inactive: 4.03% |
| CC1O[C@@H](OC2CC(O)[C@@]3(CO)C4C(O)C[C@@]5(C)C(C6=CC(=O)OC6)CC[C@]5(O)C4CC[C@]3(O)C2)C(O)C(O)C1O (stereo partly specified) | inactive: 0.277% |
| CCCCC[C@@H](/C=C/C=C\CCCCCCCC(=O)O)OO | inactive: -7.62% |
| CN1Cc2ccccc2[C@@H]2c3cccc4[nH]cc(c34)C[C@H]21 | inactive: -13.4% and inactive: 3.97% |
| C=C[C@H]1CN2CC[C@H]1C[C@H]2[C@H](OC(=O)OCC)c1ccnc2ccc(OC)cc12 | inactive: -4.28% |
| O=C(N[C@H]1CN2CCC1CC2)c1ccc(Cl)cc1 | inactive: -22.2% |
| O=[N+]([O-])c1ccc2nc(N3CCNCC3)ccc2c1 | inactive: 5.31% and inactive: -96.9% |
| N[C@@]1(C(=O)O)CC[C@H](C(=O)O)C1 | inactive: -5.79% and inactive: 8.79% and inactive: -6.46% |
| C[C@H]1C[C@H](C)C(=O)[C@@H]([C@H](O)CC2CC(=O)NC(=O)C2)C1 | inactive: -11.3% |
| C[N+]1=Cc2cc3c(cc2CC1)OCO3 | inactive: -6.88% |
| C[C@]12C=CC(=O)C=C1CC[C@@H]1[C@@H]2CC[C@@]2(C)[C@H]1CC[C@]2(C)O | inactive: -8.19% |
| CC=C(C)C(=O)O[C@H]1C(C)=C2[C@@H]3OC(=O)[C@@](C)(O)[C@@]3(O)[C@@H](OC(=O)CCC)C[C@](C)(OC(C)=O)[C@@H]2[C@@H]1OC(=O)CCCCCCC | inactive: -41.4% |
| CN(C)C1C(=O)C(C(N)=O)=C(O)[C@@]2(O)C(=O)C3=C(O)c4c(O)cccc4[C@@](C)(O)C3C[C@@H]12 (stereo partly specified) | inactive: 6.22% |
| c1csc(CN2CCC3(CCNCC3)CC2)n1 | inactive: 1.44% |

| Structure (SMILES) | activation |
| --- | --- |
| CN1CCC2=C[C@@H](O)[C@@H]3OC(=O)c4cc5c(cc4C3C21)OCO5 (stereo partly specified) | inactive: 3.16% |
| C[C@]12CC[C@H]3[C@@H](CCC4=CC(=O)CC[C@@H]43)[C@@H]1CC[C@@H]2O | inactive: -6.41% and inactive: 6.99% |
| COc1ccc2c(c1)c(CCN1CCOCC1)c(C)n2C(=O)c1cccc(Cl)c1Cl | inactive: 10.2% |
| Oc1ccc2c3c1O[C@H]1c4oc5ccccc5c4C[C@@]4(O)C(C2)N(CC2CC2)CC[C@]314 | inactive: 7.59% |
| C=CCN1C[C@@H](C)N([C@H](c2ccc(C(=O)N(CC)CC)cc2)c2cccc(OC)c2)C[C@@H]1C | inactive: -40.9% |
| Nc1ncn[nH]1 | inactive: -26.4% |
| COc1ccc(CN2CCNCC2)c(OC)c1OC | inactive: -16.1% |
| Cc1c(C(=O)c2ccc3ccccc3c2)c2cccc3c2n1[C@H](CN1CCOCC1)CO3 | inactive: 10.7% |
| C=CCC1([C@@H](C)CCC)C(=O)NC(=O)NC1=O | inactive: 0.0885% |
| CC(C)NC[C@H](O)c1ccc(N)c(C#N)c1 | inactive: -4.67% |
| CCCN(CCC)CCc1c[nH]c2ccc(C(N)=O)cc12 | inactive: 2.39% and inactive: -2.39% |
| CCN1C[C@]2(COC(=O)c3ccccc3N3C(=O)CC(C)C3=O)CC[C@H](OC)[C@@]34C5C[C@@H]6[C@@H](OC)C[C@@](O)(C5[C@H]6OC)[C@](O)([C@@H](OC)C23)[C@@H]14 (stereo partly specified) | inactive: 1.62% |
| CC(C)(N)Cc1ccc(Cl)cc1 | inactive: -4.69% |
| CN(C)C1C(=O)C(C(N)=O)=C(O)[C@@]2(O)C(=O)C3=C(O)c4c(O)ccc(Cl)c4[C@](C)(O)C3CC12 (stereo partly specified) | inactive: -30.1% |
| CC(C)=CCCC1(C)C=Cc2c(O)c3c(c(CC=C(C)C)c2O1)OC12C(CC4CC1C(C)(C)OC2(C/C=C(/C)C(=O)O)C4O)C3=O (stereo unspecified) | inactive: -37.5% |
| c1ccc2c(N3CCNCC3)cccc2c1 | inactive: 3.65% and inactive: 7.93% |
| CCCCNCC(O)c1ccc(O)cc1 (stereo unspecified) | inactive: -4.86% |
| CN(C)CCO | inactive: 9.23% |
| COCCOCCO | inactive: -12.8% |
| c1cc(N2CCCC3(CCNCC3)C2)ccn1 | inactive: -8.13% |
| CCCCC(CC)COC(=O)c1ccccc1C(=O)OCC(CC)CCCC (stereo unspecified) | inactive: -2.29% |

| Structure (SMILES) | activation |
| --- | --- |
| O=C1C[C@@H]2OCC=C3CN4CC[C@]56c7ccccc7N1[C@H]5[C@H]2[C@H]3C[C@H]46 (tested in a mixture with another compound) | inactive: -10.4% and inactive: -4.16% |
| CCCCc1ccc(C(=O)O)nc1 | inactive: -18.6% and inactive: 13.1% and inactive: -18.5% |
| N[C@@H](Cn1ccc(=O)n(Cc2ccc(C(=O)O)cc2)c1=O)C(=O)O | inactive: 4.54% |
| COc1cc(OC)c2c(c1)OC(c1ccc(OC)c(OC)c1)C(O)C2 (stereo unspecified) | inactive: -3.17% |
| Oc1ccc(Cl)cc1Cc1ccccc1 | inactive: -15.3% and inactive: -39.9% |
| CC(C)N1C(=O)c2ccccc2NS1(=O)=O | inactive: -9.84% |
| COc1ccc2c(c1O)-c1c(OC)c(OC)cc3c1[C@@H](C2)N(C)CC3 | inactive: 2.97% |
| Oc1ccc2c3c1O[C@H]1c4[nH]c5c(c4C[C@@]4(O)[C@@H](C2)N(CC2CC2)CC[C@]314)C[C@@]1(O)[C@H]2Cc3ccc(O)c4c3[C@@]1(CCN2CC1CC1)[C@H]5O4 | inactive: 5.82% and inactive: 3.06% |
| CC[C@]1(O)C(=O)OCc2c1cc1n(c2=O)Cc2cc3ccccc3nc2-1 | inactive: -9.89% |
| CCC1(c2ccccc2)CCC(=O)NC1=O (stereo unspecified) | inactive: -6.25% |
| c1cc2ccc3cccc4ccc(c1)c2c34 | inactive: 5.47% |
| COc1ccc2c3c1O[C@H]1[C@@H](O)C=C[C@H]4[C@@H](C2)N(C)CC[C@@]341 | inactive: 6.77% |
| C[C@@H]([C@H](O)c1ccccc1)N(C)C | inactive: -10.1% |
| N#Cc1ccc(CN2CC[C@@]3(CCCN(C(=O)Oc4ccccc4)C3)C2)cc1 | inactive: -14.9% |
| CC1=C2CCC3C4CCC(=O)[C@@]4(C)CCC3[C@]2(C)CCC1=O (stereo partly specified) | inactive: -0.0392% |
| OC[C@@H]1CCCN2CCCC[C@@H]12 | inactive: 2.43% |
| COc1cc(CC(C)N)cc(OC)c1OC (stereo unspecified) | inactive: 12.8% |
| Cc1ccc(Cl)c(O)c1 | inactive: -31.8% |
| COc1ccc2[nH]cc(CCN(C(C)C)C(C)C)c2c1 | inactive: -8.55% |
| CN1C[C@@H](NS(=O)(=O)N(C)C)C[C@@H]2c3cccc4c3c(cn4C)C[C@H]21 | inactive: -11.5% |
| C[N+](C)(C)CC#CCOC(=O)Nc1cccc(Cl)c1 | inactive: 3.63% and inactive: -15.3% |

| Structure (SMILES) | activation |
| --- | --- |
| C=C1C(=O)O[C@@H]2C[C@@H](C)[C@@H]3C=CC(=O)[C@@]3(C)[C@@H](O)[C@H]12 | inactive: -4.68% |
| N#C/C(=C\c1ccc(O)cc1)C(=O)O | inactive: -15% |
| CC(=O)Oc1ccc(/C=C/c2cc(OC(C)=O)cc(OC(C)=O)c2)cc1 | inactive: -23.3% |
| C=CCN1CCC23c4c5ccc(O)c4O[C@H]2C(=O)CC[C@@]3(O)C1C5 (stereo partly specified) | inactive: -11.3% |
| CN1[C@@H]2CC[C@H]1CC(O[C@@H](c1ccccc1)c1ccc(Cl)cc1)C2 (stereo partly specified) | inactive: -6.51% |
| CC(C)(O)C(Cl)(Cl)Cl | inactive: -10.6% |
| Cc1ncc(CNC(=O)N(CCCl)N=O)c(N)n1 | inactive: -7.13% and inactive: -23.3% |
| CC1(C)C(=O)C=C[C@@]2(C)C1=C(O)C(=O)[C@@]1(C)C2CC[C@@]2(C)C(c3ccoc3)C[C@H]3O[C@@]321 (stereo partly specified) | inactive: 0.564% |
| CC(N)[C@H](O)c1ccc(O)c(O)c1 (stereo partly specified) | inactive: -20.5% |
| CCC1C(C)=NN=C(c2ccc(OC)c(OC)c2)c2cc(OC)c(OC)cc21 (stereo unspecified) | inactive: -1.63% |
| CC(C)=CC1C(C(=O)OCN2C(=O)C3=C(CCCC3)C2=O)C1(C)C (stereo unspecified) | inactive: -9.01% |
| CN1CCCCC1c1ccc(-c2cccnc2)nc1 (stereo unspecified) | inactive: -12.6% and inactive: -17% |
| C[C@]12CCC(=O)C[C@@H]1CC[C@@H]1[C@@H]2CC[C@]2(C)[C@@H](O)CC[C@@H]12 | inactive: -5.55% |
| CCCCCCCCCc1ccc(O)cc1 | inactive: -49.8% |
| CC(=O)OC1C(=O)[C@]2(C)C(O)CC3OC[C@]3(OC(C)=O)C2[C@@H](OC(=O)c2ccccc2)[C@]2(O)CC(O)C(C)=C1C2(C)C (stereo partly specified) | inactive: -19.5% |
| CC1C(=O)OC2O[C@]3(C)CC[C@H]4C(C)CCC1[C@]24OO3 (stereo partly specified) | inactive: -1.42% |
| O=C(OCCN1CCCCC1)C(O)(c1ccccc1)c1ccccc1 | inactive: -7.15% |
| C[C@]12CCC3C(C=CC4=CC(=O)CC[C@]43C)C1CC[C@]2(O)CCC(=O)O (stereo partly specified) | inactive: -1.81% |
